Results reported in the RNAGym collection of RNA variant scans (doi:10.1073/pnas.2313332121).
Variants at the floor of the assay are shown more often than the library holds them.

B1: TPR 5TU (parent)
chain: GGAUCUUCUCGAUCUAACAAAAAAGACAAAUCUGCCACAAAGCUUGAGAGCAUCUUCGGAUGCAGAGGCGGCAGCCUUCGGUGGCGCGAUAGCGCCAACGUUCUCAACUAUGACACGCAAAACGCGUGCUCCGUUGAAUGGAGUUUAUCAUG

Variants of: B1
Experiment: polymerase ribozyme fitness, log enrichment relative to wild type (log ratio); higher = more active; in vitro selection for triplet polymerase activity
Method in brief: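 The heterodimeric triplet polymerase ribozyme's subunits were each mutagenized into PCR-built libraries and transcribed. Every library was selected once, in triplicate, by annealing with a biotinylated primer, the partner subunit and triplets, incubating frozen at −7 °C, gel-excising extended constructs, capturing on streptavidin beads and running RT-PCR. Input and output libraries were Illumina-sequenced, with genotypes kept only at ≥10 input reads and ≥1 read per output. Fitness, from inverse-variance-weighted replicate averages, is the base-2 logarithm of genotype enrichment over wild-type enrichment.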
For C10U A22U C79A G83C A106U, the “polymerase ribozyme fitness (log ratio)” value was no more than -4.2. In the case of C10U A23C A91C G140A A150G, the “polymerase ribozyme fitness (log ratio)” value is reported as no more than -4.2. In the case of C10U A23G A41G G58C C79G C99U A142U, the “polymerase ribozyme fitness (log ratio)” value is reported as no more than -4.2. With C10U A23G G50U U53A G71C C87A A120U the “polymerase ribozyme fitness (log ratio)” value was no more than -4.2. In the case of C10U A24C C35U G48A C85U G136C, the “polymerase ribozyme fitness (log ratio)” value is reported as no more than -4.2. In the case of C10U A28G G50U C57U C75U C95U, the “polymerase ribozyme fitness (log ratio)” value is reported as no more than -4.2. With C10U A28U A52G U56A A73C C93U U145C C149G the “polymerase ribozyme fitness (log ratio)” value was no more than -4.2. For C10U A28U G46A A60G A66U G94C A106U U151A, the “polymerase ribozyme fitness (log ratio)” value was no more than -4.2. For C10U A28U G94A U127G, the “polymerase ribozyme fitness (log ratio)” value was -4.04. With C10U A29C A49C A60C C75G U77G the “polymerase ribozyme fitness (log ratio)” value was no more than -4.2. With C10U A29G A66G C72U G88A G133U A137U A150G the “polymerase ribozyme fitness (log ratio)” value was no more than -4.2. For C10U A29U A30C U33A C87G G92A C95G A113G, the “polymerase ribozyme fitness (log ratio)” value was no more than -4.2. With C10U A29U C57U C85G C87U the “polymerase ribozyme fitness (log ratio)” value was no more than -4.2. For C10U A30C A41G U44C G70U U78C C95G A119C, the “polymerase ribozyme fitness (log ratio)” value was no more than -4.2. For C10U A30C C103G, the “polymerase ribozyme fitness (log ratio)” value was no more than -4.2. In the case of C10U A30G C87U U134A G143A U145G, the “polymerase ribozyme fitness (log ratio)” value is reported as no more than -4.2. For C10U A37C A52C C57U C87A C105G G143U, the “polymerase ribozyme fitness (log ratio)” value was no more than -4.2. For C10U A39G C54A A60U A66C U82A G84U A150C U151A, the “polymerase ribozyme fitness (log ratio)” value was no more than -4.2. With C10U A39G U102C the “polymerase ribozyme fitness (log ratio)” value was no more than -4.2. With C10U A40G the “polymerase ribozyme fitness (log ratio)” value was -4.12. For C10U A40G G50U C79G C99U C108G G117A, the “polymerase ribozyme fitness (log ratio)” value was no more than -4.2. For C10U A41C G74U A150U, the “polymerase ribozyme fitness (log ratio)” value was no more than -4.2. With C10U A41U G59U G86C the “polymerase ribozyme fitness (log ratio)” value was no more than -4.2. For C10U A47C A52G U77G G94U C99U, the “polymerase ribozyme fitness (log ratio)” value was no more than -4.2. In the case of C10U A47U G62A A73G U77G G117A, the “polymerase ribozyme fitness (log ratio)” value is reported as no more than -4.2. For C10U A49G A52C G92U C103U A121G, the “polymerase ribozyme fitness (log ratio)” value was no more than -4.2. For C10U A49G U53A G83C, the “polymerase ribozyme fitness (log ratio)” value was no more than -4.2. For C10U A49U G67A U77A A91G G100A U134G, the “polymerase ribozyme fitness (log ratio)” value was no more than -4.2. For C10U A52U A60C G88U, the “polymerase ribozyme fitness (log ratio)” value was no more than -4.2. For C10U A52U U90A C93G C96U, the “polymerase ribozyme fitness (log ratio)” value was no more than -4.2. For C10U A60U C63G A64C U90C C95G C103A A122G, the “polymerase ribozyme fitness (log ratio)” value was no more than -4.2. For C10U A66G A91G A137G U144C U146C, the “polymerase ribozyme fitness (log ratio)” value was no more than -4.2. In the case of C10U A91U G117U C132U U145A, the “polymerase ribozyme fitness (log ratio)” value is reported as no more than -4.2. With C10U C14A C27U C38U G48A A52C C85A U146C U151C the “polymerase ribozyme fitness (log ratio)” value was no more than -4.2. With C10U C14G A17G C85A C108G A113C the “polymerase ribozyme fitness (log ratio)” value was no more than -4.2. With C10U C14G C32A C76A G83U G88C C93G the “polymerase ribozyme fitness (log ratio)” value was no more than -4.2. In the case of C10U C14U C38U C103G U144G, the “polymerase ribozyme fitness (log ratio)” value is reported as no more than -4.2. With C10U C18G U45G C51U G83C G133U the “polymerase ribozyme fitness (log ratio)” value was no more than -4.2. In the case of C10U C18U U44G A60G G92A, the “polymerase ribozyme fitness (log ratio)” value is reported as no more than -4.2. With C10U C27A C38G A39U G58A C87U U144A the “polymerase ribozyme fitness (log ratio)” value was no more than -4.2. For C10U C27G C54U C95G C96G A110G, the “polymerase ribozyme fitness (log ratio)” value was no more than -4.2. In the case of C10U C27U U44G A91G C116G G141A, the “polymerase ribozyme fitness (log ratio)” value is reported as no more than -4.2. In the case of C10U C32A C51G A106G A142C U148A, the “polymerase ribozyme fitness (log ratio)” value is reported as no more than -4.2. With C10U C32U A60G the “polymerase ribozyme fitness (log ratio)” value was no more than -4.2. With C10U C35A A40U U44A C51U G59U G68C C87A G143U the “polymerase ribozyme fitness (log ratio)” value was no more than -4.2. In the case of C10U C35A U45G G100U A107G U135C, the “polymerase ribozyme fitness (log ratio)” value is reported as no more than -4.2. With C10U C35G U55G G81A A98G U102A the “polymerase ribozyme fitness (log ratio)” value was no more than -4.2. In the case of C10U C35U A37U G58A C63A U109G A142G, the “polymerase ribozyme fitness (log ratio)” value is reported as no more than -4.2. In the case of C10U C35U G68U G88A U90A, the “polymerase ribozyme fitness (log ratio)” value is reported as no more than -4.2. In the case of C10U C38U A41C C95U G141A, the “polymerase ribozyme fitness (log ratio)” value is reported as no more than -4.2. For C10U C38U C57U G117A U139A, the “polymerase ribozyme fitness (log ratio)” value was no more than -4.2. In the case of C10U C43U A60G A73C U77G, the “polymerase ribozyme fitness (log ratio)” value is reported as no more than -4.2. In the case of C10U C54A C72U G84U A98U C125A, the “polymerase ribozyme fitness (log ratio)” value is reported as no more than -4.2. For C10U C54U G71U C85A C96G G133C U145G G152A, the “polymerase ribozyme fitness (log ratio)” value was no more than -4.2. With C10U C57A C93U C99A U146G the “polymerase ribozyme fitness (log ratio)” value was no more than -4.2. For C10U C57G C72U C87U U90G A119C G126A, the “polymerase ribozyme fitness (log ratio)” value was no more than -4.2. For C10U C75G C93G C103U, the “polymerase ribozyme fitness (log ratio)” value was no more than -4.2. In the case of C10U C85G C99U G140U, the “polymerase ribozyme fitness (log ratio)” value is reported as no more than -4.2. With C10U C87A U139G A150G the “polymerase ribozyme fitness (log ratio)” value was no more than -4.2. For C10U C87U, the “polymerase ribozyme fitness (log ratio)” value was -2.87. With C10U C105A the “polymerase ribozyme fitness (log ratio)” value was -3.59. For C10U C123U G141C, the “polymerase ribozyme fitness (log ratio)” value was -4.03. With C10U C131A the “polymerase ribozyme fitness (log ratio)” value was no more than -4.2. For C10U G11U A29C U44G U55A G68A G71U G80A C93A A98U A138C, the “polymerase ribozyme fitness (log ratio)” value was no more than -4.2. For C10U G25C G80A C87G, the “polymerase ribozyme fitness (log ratio)” value was no more than -4.2. In the case of C10U G25C U44A C85G C96G A142G, the “polymerase ribozyme fitness (log ratio)” value is reported as no more than -4.2. With C10U G25U A29U C87A the “polymerase ribozyme fitness (log ratio)” value was no more than -4.2. With C10U G25U A40U C79U G84A A142C the “polymerase ribozyme fitness (log ratio)” value was no more than -4.2. In the case of C10U G34A C57G C87A C95U C123U A137C, the “polymerase ribozyme fitness (log ratio)” value is reported as no more than -4.2. For C10U G42C G88U C105G G143U, the “polymerase ribozyme fitness (log ratio)” value was no more than -4.2. In the case of C10U G46A G92A G140A G141U, the “polymerase ribozyme fitness (log ratio)” value is reported as no more than -4.2. With C10U G48U C54A C85A A142G the “polymerase ribozyme fitness (log ratio)” value was no more than -4.2. For C10U G50A U55G A91G G143C, the “polymerase ribozyme fitness (log ratio)” value was no more than -4.2. For C10U G50U C95U, the “polymerase ribozyme fitness (log ratio)” value was -3.16. With C10U G58C A60C G92U C149U the “polymerase ribozyme fitness (log ratio)” value was no more than -4.2. In the case of C10U G59A C87A A120U U145C, the “polymerase ribozyme fitness (log ratio)” value is reported as no more than -4.2. With C10U G67C G88A U144A A150U the “polymerase ribozyme fitness (log ratio)” value was no more than -4.2. In the case of C10U G80C A107U, the “polymerase ribozyme fitness (log ratio)” value is reported as no more than -4.2. In the case of C10U G80C G84U C87A C105A U151G, the “polymerase ribozyme fitness (log ratio)” value is reported as no more than -4.2. In the case of C10U G83C C85A A89G C118G U135G, the “polymerase ribozyme fitness (log ratio)” value is reported as no more than -4.2. With C10U G84A U101A A115U A121G G124A the “polymerase ribozyme fitness (log ratio)” value was no more than -4.2. In the case of C10U G84C C87U U90C G94U C132A U145C, the “polymerase ribozyme fitness (log ratio)” value is reported as no more than -4.2. With C10U G88C the “polymerase ribozyme fitness (log ratio)” value was no more than -4.2. In the case of C10U G94A, the “polymerase ribozyme fitness (log ratio)” value is reported as -2.69.
